# Measurements taken from PubChem BioAssay AID485294 (National Center for Advancing Translational Sciences (NCATS), 2010).
# The campaign covered roughly 370,000 compounds. About 150 (0.041%) were called active. Inconclusive means that the source gave no clear call. Such entries were picked first, then a sample of the others. Calls come from the whole dose curve; as a rule, active = well fitted inhibition curve with a large enough effect; inconclusive = small, poorly fitted or top-dose-only effect; inactive = flat fitted curve, though single readings scatter. No potency is given beside an inconclusive call; the fits are too rough.
# Molecular target: Beta-lactamase (Escherichia coli (strain K12)) (UniProt P00811)
# Test: qHTS Inhibitors of AmpC Beta-Lactamase (assay with detergent); note: nearly all actives have a fitted effect of over 25% in size;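 for activity change, negative = inhibition: 0% = no-compound wells and -100% = no-enzyme wells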
# Conditions: AmpC hydrolysis of nitrocefin, absorbance 480 nm, 0.01% Triton; activity change, negative = inhibition: at 114 µM (top of the series)
# Procedure, shortened: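 AmpC (5.3 nM in the dispensed reagent) in 20 mM phosphate pH 7.0 with 0.01% (detergent screen) or 0.0001% Triton X-100 was preincubated with compounds for 15 min at room temperature. Nitrocefin was then added from an 800 uM solution, and hydrolysis was followed at 480 nm.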
# Potency is the fitted concentration of half-maximal effect; tags give direction and shape of the fitted curve.
# Sequence of UniProt P00811 (P00811 whole entry, looked up): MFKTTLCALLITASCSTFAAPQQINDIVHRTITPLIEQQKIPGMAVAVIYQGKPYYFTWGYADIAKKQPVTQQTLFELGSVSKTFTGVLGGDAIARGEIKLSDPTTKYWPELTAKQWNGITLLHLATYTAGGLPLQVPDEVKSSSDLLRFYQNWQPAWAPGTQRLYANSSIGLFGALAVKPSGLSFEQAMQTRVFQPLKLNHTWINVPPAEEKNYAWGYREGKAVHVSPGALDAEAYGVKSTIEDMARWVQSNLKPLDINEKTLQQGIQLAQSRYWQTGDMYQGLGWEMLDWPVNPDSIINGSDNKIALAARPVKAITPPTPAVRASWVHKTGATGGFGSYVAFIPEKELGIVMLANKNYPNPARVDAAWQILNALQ
Structure (SMILES),"activity change, negative = inhibition",Potency
Cn1c(N)c(C#N)c2c(c1=S)CSC(C)(C)C2,inactive: -13.3%,–
O=C(Nc1ccc(Oc2ccc3c(c2)C(=O)N(c2ccc(O)cc2)C3=O)cc1)c1cccs1,–,"inconclusive [inhibitor, full curve, poor fit]"
CN=C(Nc1ccc(C(=O)OC)s1)c1ccccc1,–,"inconclusive [inhibitor, full curve, poor fit]"
CCCCC1NC(C(=O)O)CS1 (stereo not drawn),–,"inconclusive [inhibitor, partial curve]"
Cc1ccc(-n2c(C)cc(C(=O)CSc3nnnn3C)c2C)cc1,inactive: -0.024%,–
CCCCNC(=S)Nc1ccc(C(F)(F)F)cc1,–,"inconclusive [inhibitor, full curve, poor fit]"
O=C1CS/C(=N/N=C/c2ccccc2)N1c1ccc(O)cc1,–,"inconclusive [inhibitor, partial curve, poor fit]"
COCCN(C(=O)CC1CCCC1)c1c(N)n(CC(C)C)c(=O)[nH]c1=O,–,"inconclusive [inhibitor, full curve, poor fit]"
Cc1oc(-c2ccc(Cl)cc2)nc1CS(=O)CC(=O)NC1CCCCCC1 (stereo not drawn),inactive: -2.15%,–
O=C(O)CC1C(=O)NCCN1CCCc1ccccc1 (stereo not drawn),–,"inconclusive [inhibitor, full curve, poor fit]"
CCOc1ccccc1NC(=O)CCS(=O)(=O)c1ccc2c(c1)CCN2C(C)=O,–,"inconclusive [inhibitor, full curve, poor fit]"
CC1(C)Cc2cccc(OCC(=O)NCc3cccs3)c2O1,–,"inconclusive [inhibitor, full curve, poor fit]"
Cc1ccc(NC(=O)CN(C)C(=O)CNC(=O)c2ccc3c(c2)OCO3)cc1,–,"inconclusive [inhibitor, full curve, poor fit]"
CC(=O)c1sc(-c2ccc(Cl)cc2)nc1C,–,"inconclusive [inhibitor, full curve, poor fit]"
COc1ccc(C(=O)COC(=O)Cn2nnc3ccccc32)cc1Br,–,"inconclusive [inhibitor, partial curve]"
O=C(CN1C(=O)COc2ccccc21)N1CCc2ccccc21,–,"inconclusive [inhibitor, full curve, poor fit]"
Cc1cc(OCC(=O)Nc2ccncc2)c(C)cc1Br,–,"inconclusive [inhibitor, partial curve]"
CC1CN(C(=O)Cn2c(C(F)(F)F)nc3ccccc32)CC(C)O1 (stereo not drawn),inactive: -1.48%,–
COc1ccc(CNC(=O)/C=C/c2ccc(OCCCF)cc2)cc1,–,"inconclusive [inhibitor, full curve, poor fit]"
N#Cc1c(SCC(=O)Nc2nccs2)sc2c(O)cc(=O)[nH]c12,–,"inconclusive [inhibitor, full curve, poor fit]"
CSC1=C(C#N)C(c2ccccc2Cl)C(C(C)=O)=C(C)N1 (stereo not drawn),–,"inconclusive [inhibitor, partial curve, poor fit]"
CCOC(=O)CNC(=O)N1CCN(S(=O)(=O)c2ccc3c(ccn3C)c2)CC1,inactive: 5.04%,–
c1ccn2c(SCc3ccc4c(c3)OCCO4)nnc2c1,–,"inconclusive [inhibitor, partial curve]"

Structure (SMILES),"activity change, negative = inhibition",Potency
O=C(NCc1ccccc1)C(c1ccc(F)cc1)N(Cc1ccc2c(c1)OCO2)C(=O)Cn1nnc(-c2cccs2)n1 (stereo not drawn),inactive: 2.85%,–
CC(=O)c1ccc(NC(=O)CCc2nnc3ccc(NCc4ccco4)nn23)cc1,–,"inconclusive [inhibitor, full curve, poor fit]"
Cc1ccc(S(=O)(=O)NCCC(=O)O)cc1,–,"inconclusive [inhibitor, single point]"
CCOc1ccc(C(=O)O/N=C(\N)c2ccc([N+](=O)[O-])cc2)cc1OCC,–,"inconclusive [inhibitor, partial curve]"
Cc1cccc(NC(=O)COc2cccc3c2CCN(Cc2ccccc2)C3=O)c1C,–,"inconclusive [inhibitor, partial curve, poor fit]"
CC(Oc1cccc2c1OC(C)(C)C2)C(=O)O (stereo not drawn),–,"inconclusive [inhibitor, full curve, poor fit]"
CCOC(=O)N1CCN(S(=O)(=O)c2ccc(Br)s2)CC1,–,"inconclusive [inhibitor, full curve, poor fit]"
COc1ccc(C2CC(=O)c3cc(-c4nc(-c5cccc([N+](=O)[O-])c5)cs4)c(=O)n(-c4ccccc4N)c3C2)cc1 (stereo not drawn),inactive: -1.6%,–
Cc1nc2ccn(Cc3ccco3)c(=O)c2cc1C(=O)NCc1ccc(Cl)cc1,–,"inconclusive [inhibitor, single point]"
Cc1ccc(OCC(=O)N/N=C\c2c(C)[nH]n(-c3ccccc3)c2=O)c([N+](=O)[O-])c1,inactive: -3.31%,–
COc1ccc(/C=C2\SC(=S)N(CCC(=O)Nc3ccc(C(=O)O)cc3)C2=O)cc1,–,"inconclusive [inhibitor, full curve, poor fit]"
COc1ccc(Cl)cc1N(CC(=O)NCC(C)C)S(=O)(=O)c1ccc(C)c([N+](=O)[O-])c1,inactive: -23.9%,–
COC(=O)C1=CN(Cc2ccc(OC)c(OC)c2)C=C(C(=O)OC)C1c1ccc(F)cc1,–,"inconclusive [inhibitor, partial curve, poor fit]"
CCC/C(=N\NC(=O)CNC(=O)/C=C/c1ccco1)c1ccccc1,inactive: 18.3%,–
Cc1ccc(CN2CCc3c(OCC(=O)Nc4cc(C)ccc4C)cccc3C2=O)cc1,–,"inconclusive [inhibitor, full curve, poor fit]"
CCOC(=O)c1c(S(=O)(=O)N2CCC(C(=O)NCc3cccc(OC)c3)CC2)c(C)n(C)c1C,inactive: 3.29%,–
CN(C)S(=O)(=O)c1ccc(NC(=O)COc2cccc3c2OC(C)(C)C3)cc1,–,"inconclusive [inhibitor, partial curve, poor fit]"
Cc1ccc(-n2nnnc2SCC(=O)Nc2ccccc2N2CCCCC2)cc1C,inactive: -12.2%,–
CCc1ccc(-c2cc(C(=O)NN3CCOCC3)c3ccccc3n2)cc1,–,"inconclusive [inhibitor, full curve]"
CCCOc1ccc(/C=N/Nc2cc(N3CCOCC3)ncn2)c(O)c1,inactive: -12.6%,–
CCOC(=O)c1cnc2ccc(OC)cc2c1NCc1ccccc1,–,"inconclusive [inhibitor, full curve, poor fit]"
COc1ccc(-c2noc(-c3ccco3)n2)cc1OC,–,"inconclusive [inhibitor, full curve, poor fit]"
O=C(N/N=C/c1ccc2c(c1)OCO2)c1ccc2ccccc2n1,inactive: 3.54%,–

Structure (SMILES),"activity change, negative = inhibition",Potency
CC1=C(C(=O)OC2CCCC2)C(c2c(F)cccc2Cl)CC(=O)N1 (stereo not drawn),inactive: 9.85%,–
Cc1ccc(CNC(=O)C2CN(S(C)(=O)=O)c3cc(Cl)ccc3O2)cc1 (stereo not drawn),inactive: 6.52%,–
CCn1c(CNC(=O)c2cccs2)n[nH]c1=S,–,"inconclusive [inhibitor, partial curve]"
CC(=O)c1ccc(N2CCN(C(=O)C3CCN(S(=O)(=O)Cc4ccccc4)CC3)CC2)cc1,–,"inconclusive [inhibitor, full curve]"
N#Cc1ccc(-c2nc3cc(C#N)c(C#N)cc3nc2-c2ccccc2)cc1C#N,–,"inconclusive [inhibitor, partial curve]"
COc1ccc(C(=O)c2cn(CC(=O)Nc3cc(OC)cc(OC)c3)c3ccc(OC)cc3c2=O)cc1,inactive: -5.68%,–
Cc1ccc2c(c1)N(CC(=O)Nc1ccccc1F)C(=O)CO2,–,"inconclusive [inhibitor, full curve]"
COc1ccc2oc(C(=O)c3ccccc3)c(N)c2c1,inactive: 2.04%,–
COc1ccc2cc3cc(C(=O)Nc4ccc5c(c4)OCCO5)oc3nc2c1,–,"inconclusive [inhibitor, single point]"
Cc1ccccc1N1CCN(CC(=O)Nc2nc(C)c(C(=O)N(C)C)s2)CC1,inactive: -0.228%,–
COc1cccc(N2CCN(Cc3nc(N)nc(Nc4ccccc4)n3)CC2)c1,–,"inconclusive [inhibitor, full curve, poor fit]"
CCCn1c(-c2cc(OC)c(OC)c(OC)c2)nc2nc3ccccc3nc21,–,"inconclusive [inhibitor, full curve, poor fit]"
Cc1nc2sc3c(c2c(=O)o1)CCCC3,–,"inconclusive [inhibitor, full curve, poor fit]"
Cc1nc(NC(=O)c2cc3ccccc3o2)sc1C,inactive: -6.03%,–
CN1CCCN(C(=O)c2cccc3ccccc23)CC1,–,"inconclusive [inhibitor, full curve, poor fit]"
CCC1CCCCN1CCNS(=O)(=O)c1ccc2c(c1)CCN2C(C)=O (stereo not drawn),–,"inconclusive [inhibitor, single point]"
C=CCS(=O)(=O)c1nc2ccccc2s1,inactive: 1.96%,–
COc1ccc(Cl)cc1C(=O)O/N=C(\N)c1ccncc1,inactive: -2.5%,–
CCCCN(C)C(=O)c1ccc2c(=O)n3nc(Nc4cc(C)ccc4C)sc3nc2c1,–,"inconclusive [inhibitor, partial curve, poor fit]"
O=c1ccc(S(=O)(=O)N2CCCC2)cn1Cc1ccc(F)cc1,–,"inconclusive [inhibitor, single point]"
Cc1cc(C(=O)CN2C(=O)NC3(CCCCCC3)C2=O)c(C)n1C,–,"inconclusive [inhibitor, full curve, poor fit]"
Cc1ccc(S(=O)(=O)ON2C(=O)c3ccccc3C2=O)c(C)c1,–,active: 79.4 µM
